Experimental findings from PubChem BioAssay (NCI) are described below.

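Each compound was tested at five concentrations against cells in 96-well plates for 48 hours. GI50: concentration for 50% inhibition of growth. TGI: concentration producing complete growth inhibition.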 Peptide text beside a SMILES is read from it. * marks the point of attachment. Boc = CC(C)(C)OC(=O)*; OBn = c1ccc(CO*)cc1 Some results are limits rather than exact numbers.

In this assay the test system is NCI-H322M lung. Briefly: NCI tumour cell line growth inhibition, 48 h.
As for `Oc1ccc(CCNCc2cc3c(cc2Br)OCO3)cc1`, the TGI was above 100 µM. Compound `CN(C)S(=O)(=O)n1cnc(CO)c1` showed a TGI above 100 µM. The compound `CN(C)C=NCCN1CCOCC1` gave a TGI above 100 µM.

Compound `COc1ccc(/C=c2/sc3n(c2=O)NC2(CCC(C)CC2)NN=3)cc1` (configuration not stated) displayed a TGI above 100 µM. For `Nc1nc(N)c2c(n1)NC(c1ccccc1)C1CCc3ccccc3C1=N2` (configuration not stated), the GI50 is 10.1 µM and the TGI is 22.1 µM.

Turning to `COc1cc([C@@]23OC[C@@H]4[C@@H](OC[C@@H]42)c2cc4c(cc23)OCO4)cc(OC)c1OC`, the TGI was above 100 µM. Compound `COC(=O)c1c[nH]c2c1-c1cc(C(=O)OCc3ccccc3)n(S(=O)(=O)c3ccc(C)cc3)c1C(=O)C2=O` registered a TGI of 0.872 µM. Compound `CC(C)(C)OC/C=C1\C(=O)O[C@H]2C[C@@H](O[Si](C)(C)C(C)(C)C)C[C@@H]12` displayed a TGI above 100 µM. In the case of `CCCCNC(=O)Oc1ccc(/C(=C(/C)Cc2ccc(OC)cc2)c2ccc(OCCN3CCCC3)cc2)cc1`, the GI50 was 3.26 µM and the TGI was 13.8 µM. In the case of `CC(C)CC(NC(=O)OC(C)(C)C)C(=O)N1CCCC1C(=O)OCc1ccccc1` (stereo not drawn) (Boc-Leu-Pro-OBn; configuration not given here), the TGI was above 100 µM. `C#CC1(O)c2ccccc2C(=O)c2ccccc21` registered a TGI above 100 µM. In turn, `COC1=CC(=O)c2c(c(COP(=O)(N(C)CCBr)N(C)CCBr)cn2C)C1=O` returned a TGI of 2.57 µM.

`O=C(Nc1cc(Cl)cc(Cl)c1)/C(Cc1nc2ccccc2[nH]c1=O)=N/NC(=O)c1ccncc1`: the TGI is above 100 µM. `O=c1c2cc(I)ccc2nc(SCc2n[nH]c(=S)o2)n1Cc1ccccc1` came in with a TGI of 48.5 µM. For the compound `Cc1[nH]c(-c2nc3ccccc3[nH]2)c(C)c1C(=O)NC(C)C1CCCCC1` (configuration not stated), the GI50 was 13.4 µM and the TGI was 26.9 µM.

As for `CN(C)CC1CCCCCCCCCC(CN(C)C)C1=O` (configuration not stated), the TGI is above 100 µM. Compound `NCCSCc1ccccc1Cl` gave a TGI above 100 µM. In the case of `CCc1cc2ncc(CN3CCN(c4ccc(C(=O)NC)nc4)CC3)cc2[nH]c1=O`, the GI50 was above 100 µM and the TGI is above 100 µM.

Take `Cn1c2ccccc2c2c3[nH][nH]c(=O)c3c3c4ccccc4[nH]c3c21`: the GI50 is 2.65 µM and the TGI was found to be 60.8 µM. With `C[n+]1c(-c2ccc(/C=N/NC(=O)c3ccc(C(=O)N/N=C/c4ccc(-c5cn6ccccc6[n+]5C)cc4)cc3)cc2)cn2ccccc21`, the GI50 was above 1000 µM and the TGI is above 1000 µM. In turn, `CCN(CC)CCCNc1nc(=O)[nH]c(C)c1C(=O)Nc1ccc2c(c1)c1ccccc1n2CC` yielded a TGI above 100 µM.

Compound `NCCCCC(=O)c1cccnc1` returned a TGI above 100 µM.

`C=CC(Br)(CBr)CCC(Br)C(C)(C)Cl` (configuration not stated): the TGI came to 8.22 µM. On to `C=C(CC(=O)O)C(=O)O` (tested in a mixture with another compound), for which the GI50 was above 50 µg/mL and the TGI is above 50 µg/mL. The compound `O=c1c(NO)c([N+](=O)[O-])cnn1-c1ccccc1` registered a TGI of 13 µM. In the case of `NCCOc1ccccc1/C=C1\c2ccccc2-c2ccc([N+](=O)[O-])cc21`, the GI50 was 1.6 µM and the TGI amounted to 2.96 µM. `COc1ccc(/C=C/C(=O)CC(=O)/C=C/c2ccc(OC)cc2)cc1` displayed a TGI above 100 µM. As to `Cc1cccc(N2C(=O)C(=O)C(c3nc4ccccc4s3)/C(=N/NC(=S)NN)C2=O)c1C` (configuration not stated), the TGI is above 100 µM. For the compound `CC(C)(C)OC(=O)C1=C2C=C(O)C=CC2(C)N(Cc2ccccc2)C1=N` (configuration not stated), the TGI amounted to 30.6 µM.

`O=C(CC(=O)N1N=C(N(c2ccccc2)c2ccccc2)CC1c1ccccc1)Nc1ccc(Cl)cc1` (configuration not stated) gave a TGI above 100 µM. For `O=[N+]([O-])C(=C1Nc2ccccc2N1)/C(Cl)=C(/Cl)N1CCOCC1`, the TGI was above 100 µM. As to `COC1C(OC(=O)/C=C/C=C/C=C/C=C\C(=O)O)CCC2(CO2)C1C1(C)OC1CC=C(C)C` (configuration not stated), the GI50 is above 200 µM and the TGI was above 200 µM. Turning to `Cc1cc2nc3cc(C)c(N)cc3[n+](-c3ccccc3)c2cc1N`, the GI50 is 8.29 µM and the TGI is above 100 µM.

As to `N#Cc1c(O)c(N=Nc2ccc(Cl)cc2)c(=O)n2c1[nH]c1ccccc12`, the TGI was above 100 µM. The same measure, in the same setting: in the case of `CC(=O)c1cccc(NC(=O)C(=O)C(c2cnc3ccc([N+](=O)[O-])cc3n2)[N+](=O)[O-])c1` (configuration not stated) it was above 100 µM; in that of `COc1ccc(N=Nc2c(C)c(C#N)c(=S)n(C3OC(CO)C(O)C(O)C3O)c2C)cc1` (configuration not stated), above 100 µM; in that of `O=C(NC(Nc1ccc(F)cc1)(C(F)(F)F)C(F)(F)F)C(C(F)(F)F)C(F)(F)F`, above 100 µM. In the case of `CC(=O)C(CN(C)C)C(c1ccccc1)c1c(O)c2ccccc2oc1=O` (configuration not stated), the TGI is above 100 µM. `COC(=O)C1=CN(C2CCCCC2)C2(c3ccccc3)c3ccccc3C(=O)OC(=O)C12` (configuration not stated) had a TGI above 100 µM. As for `N=C(N)c1ccc(-c2ccc(-c3cccs3)s2)s1`, the GI50 is 0.268 µM and the TGI was 1.11 µM.

`COc1ccc2c(c1)CCCN2S(=O)(=O)c1ccccc1[N+](=O)[O-]`: the TGI was above 100 µM. Consider `CN1CCN(Cc2ccc(NC(=O)c3cncc(C#Cc4cncc5nccnc45)c3)cc2C(F)(F)F)CC1`, for which the GI50 was 2.5 µM and the TGI is 8.91 µM. Consider `COc1ccc2c(c1)CC1c3c(ccc(OC)c3O)CC2N1C` (configuration not stated), for which the TGI is above 100 µM. Turning to `COc1ccccc1N=N/C(=N\NC(=O)c1ccc(C)cc1)c1ccc(N(CCC#N)CCC#N)cc1C`, the TGI was above 100 µM. For `COC(=O)C1=C(C(=O)OC)SC(=C2S[C@@H]3[C@@H]4C[C@H]([C@@H]3S2)[C@H]2C(=O)OC(=O)[C@@H]42)S1`, the TGI is above 100 µM. `O=S1(=O)CS(=O)(=O)OCCO1`: the TGI is 329 µM. For the compound `COc1cc2c(cc1OC)NC(=O)NC(Cc1ccc3c(c1)OCO3)CC2` (configuration not stated), the TGI is above 100 µM. Still for that read-out and setting: as for `CN1C=Cc2nccc3cc4c(c1c23)OCO4`, the figure is 11.3 µM. Take `Cc1ccc(C2=Nc3c(N)ncnc3NC(c3ccc4c(c3)OCO4)C2)cc1` (configuration not stated): the GI50 is 16.5 µM and the TGI was above 100 µM. As to `CC(=O)ON1C(=O)c2cccc3cccc(c23)C1=O`, the TGI was above 100 µM. For the compound `C/C(=N\NC(=S)N1CC2CCC(CC2)C1)c1cccc(C)n1`, the GI50 is 2.51 µM and the TGI stood at 17.3 µM. Regarding `O=C(CN1CCOCC1)c1ccc2c(c1)oc(=O)n2CCN1CCCC1`, the TGI was above 100 µM. Compound `CCOC(=O)/C=C/[C@H](O)[C@@H](O)/C=C/C(=O)OCC` yielded a TGI above 100 µM. For the compound `O=[n+]1c2ccccc2n([O-])c2cc(Cl)ccc21`, the GI50 was 18 µM and the TGI came to 52 µM. In turn, `CCOC(=O)[C@H]1Nc2ccc([N+](=O)[O-])cc2C2c3ccccc3CC21` (some centres not stated) gave a TGI above 100 µM.

`Cc1nn2c(C(=O)N/N=C/c3ccc([N+](=O)[O-])cc3)c(C)nc2s1` displayed a TGI above 100 µM. `C=C(C)C(O)C(O)C[C@@H](C)C1CC[C@]23C[C@]12CCC1[C@@]2(C)CCC(OC(C)=O)C(C)(C)C2CC(OC2OC(CO)C(O)C(O)C2O)[C@]13C` (some centres not stated) returned a TGI of 52 µM.
